Paper PMC4336329 (PLoS ONE, 2015)
In all, about 310,000 compounds went through this assay and about 2,200 (0.71%) showed an effect of 50% or more. Effects have a minus sign here. The list shows a part of the results.

Molecular target: human ether-à-go-go-related gene (hERG) potassium channel (human, UniProt Q12809)
Assay: primary screen, population patch clamp on CHO cells stably expressing hERG

Sequence of human ether-à-go-go-related gene (hERG) potassium channel (Q12809 whole entry, looked up): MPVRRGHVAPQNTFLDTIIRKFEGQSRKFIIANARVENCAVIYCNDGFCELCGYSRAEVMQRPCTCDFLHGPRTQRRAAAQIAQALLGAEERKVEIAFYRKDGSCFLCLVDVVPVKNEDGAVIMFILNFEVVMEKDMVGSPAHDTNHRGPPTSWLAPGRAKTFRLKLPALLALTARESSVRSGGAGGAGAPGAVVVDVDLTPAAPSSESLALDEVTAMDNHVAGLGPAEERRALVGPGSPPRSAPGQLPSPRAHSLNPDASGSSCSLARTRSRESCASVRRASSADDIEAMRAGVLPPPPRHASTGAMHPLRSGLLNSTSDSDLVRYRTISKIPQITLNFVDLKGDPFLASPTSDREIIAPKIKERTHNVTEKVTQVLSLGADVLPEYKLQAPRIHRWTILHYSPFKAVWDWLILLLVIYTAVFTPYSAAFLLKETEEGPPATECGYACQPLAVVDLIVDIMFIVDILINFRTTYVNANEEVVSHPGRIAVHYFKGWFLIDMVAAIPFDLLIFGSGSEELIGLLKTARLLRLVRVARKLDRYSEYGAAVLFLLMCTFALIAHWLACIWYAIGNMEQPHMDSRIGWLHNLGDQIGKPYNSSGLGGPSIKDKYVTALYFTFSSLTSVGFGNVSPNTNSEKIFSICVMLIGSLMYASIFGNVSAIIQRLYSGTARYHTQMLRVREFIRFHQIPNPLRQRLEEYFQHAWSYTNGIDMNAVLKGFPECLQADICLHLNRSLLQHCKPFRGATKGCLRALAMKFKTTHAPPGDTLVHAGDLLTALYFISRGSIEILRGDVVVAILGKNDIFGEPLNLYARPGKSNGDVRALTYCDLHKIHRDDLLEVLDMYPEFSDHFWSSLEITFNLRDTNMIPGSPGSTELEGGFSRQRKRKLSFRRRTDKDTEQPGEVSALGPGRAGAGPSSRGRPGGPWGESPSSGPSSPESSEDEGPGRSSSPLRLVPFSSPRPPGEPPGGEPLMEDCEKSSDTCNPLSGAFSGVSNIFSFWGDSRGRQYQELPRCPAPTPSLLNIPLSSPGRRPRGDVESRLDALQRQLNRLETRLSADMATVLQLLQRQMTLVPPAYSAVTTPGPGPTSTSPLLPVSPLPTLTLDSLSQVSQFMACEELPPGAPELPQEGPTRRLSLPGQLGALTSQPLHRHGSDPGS

SMILES | hERG current change (%, negative = inhibition) at 1uM
Cc1cccc2cc3c(N)c(C(=O)Nc4ccc(N5CCOCC5)cc4)sc3nc12 | 2.09%
CC(=O)c1sc(-c2ccc(F)cc2)cc1NS(=O)(=O)c1ccc(C)cc1 | 12.5%
CC(C)(C)OC(=O)NCCCCCNC(=O)c1[nH]cnc1C(=O)Nc1ccc(Cl)cc1 | 15.1%
Cc1ccc(-n2c(=O)cc(N3CCc4ccccc4C3)[nH]c2=O)cc1 | 8.96%
COc1cc(F)c(C2=CC(=O)C[C@H](c3ccc4c(c3)OCO4)C2)cc1F | 9.28%
COC(=O)C1=C(O)/C(=C\c2ccc(OCC(=O)Nc3ccc(OC)cc3)cc2)N=C1C | 11.2%
Cc1ccc(C(c2nnnn2C(C)(C)C)N2CCC(C)CC2)cc1.Cl (stereo not drawn) | -5.74%
Cc1nnc(N2CCOCC2)c2ccccc12 | 10.8%
COc1cccc(C(=O)NCc2ccc3c(c2)OCO3)c1 | 15.8%
CC(=O)C(Cc1ccccc1)NC(=O)CCl (stereo not drawn) | 12.1%
Cc1c(C(=O)NCc2nnc(-c3ccccc3)o2)oc2c(F)cccc12 | 5.92%
O=C1CCCN1CCC1CCN(C2CC(=O)N(c3ccc(F)cc3)C2=O)CC1 (stereo not drawn) | 4.58%
NC(=O)c1ccc(Br)c(S(=O)(=O)N2CCCCC2)c1 | 0.153%
COc1cc(Nc2cc(C)nc3ncnn23)cc(OC)c1 | -1.96%
CCc1c(C)sc(NC(=O)Cn2nc(C(F)(F)F)c3c2CCCC3)c1C#N | -1.36%
Cc1cc(C)cc(N(CCC#N)C(=O)COC(=O)C2CCN(S(=O)(=O)c3ccc(C)c(C)c3)CC2)c1 | 4.75%
CC1=C(C(=O)Nc2cccc([N+](=O)[O-])c2)C2(CCC(C)CC2)OC1=O (stereo not drawn) | 4.04%
CCn1nc(C)c(CNC(=O)CC2C(=O)NCCN2CC(C)(C)C)c1C (stereo not drawn) | 15.3%
CC(=O)c1cccc(NC(=O)NNC(=O)c2ccc3ccccc3c2)c1 | -2.36%
O=C(O)C1C2C=CC(C2)C1C(=O)NCCCn1ccnc1 (stereo not drawn) | 2.32%
CCCc1ccc(Oc2cc(NN3CCCCC3)c([N+](=O)[O-])cc2[N+](=O)[O-])cc1 | -3.09%
CNC(=O)Oc1ccc(C(=O)N2c3ccccc3NC(=O)C2C)cc1 (stereo not drawn) | 12.1%

SMILES | hERG current change (%, negative = inhibition) at 1uM
Cc1ccc(NC(=O)CNC(=O)c2ccco2)c(Cl)c1 | 4.85%
CC(=O)c1sc(NC(=O)C2(F)C(F)(F)C(F)(F)C(F)(F)C(F)(F)C2(F)F)nc1C | 13.7%
COc1ccc(NC(=O)CSc2nc3c(cc2C#N)CN(C)CC3)cc1 | 1.84%
O=C(NCCN1CCOCC1)c1cc(Sc2ccccc2Cl)nc2ccccc12 | -2.55%
O=C(O)c1ccccc1-c1ncc(-c2ccccc2)o1 | 4.93%
C#CCOc1ccc(/C=N/NC(=O)c2cccnc2)cc1OCC | -5.67%
COc1ccc(-c2[nH]ncc2CN2CCCC(C(=O)c3ccc(OC)cc3OC)C2)cc1 (stereo not drawn) | -47.3%
O=C(CCN1CCN(c2ccccc2F)CC1)Nc1cccc(F)c1 | 3.23%
CCOc1ccc2nc(SCC(=O)N(CCOC)c3c(N)n(Cc4ccccc4)c(=O)[nH]c3=O)[nH]c2c1 | 14.1%
CCOC(=O)c1c(C)[nH]c(C=Nc2ccc(OC)cc2)c1O | 2.76%
CCOC(=O)c1[nH]c2cc3c(cc2c1NC(=O)CN1CCC2(CC1)OCCO2)OCO3 | 8.62%
Cc1cccc(OCCn2c(S(=O)(=O)O)nc3ccccc32)c1 | 3.9%
COc1ccc(Cl)cc1C(=O)Nc1ccc(CN2CCCCC2)cc1 | -4.8%
CCCCCCC(=O)N/N=C/c1c(O)n(CCc2ccccc2)c(=O)[nH]c1=O | 7.62%
O=C(Nc1ccc(Br)c2ccccc12)c1ccc2ccccc2c1O | 16.9%
COc1ccc(N2CSC3=C(C#N)C(c4cccc(OC)c4OC)CC(=O)N3C2)cc1 (stereo not drawn) | 14.8%
Cc1[nH]c2ccccc2c1C(c1ccncc1)N1CCC(C)CC1 (stereo not drawn) | 17.1%
COc1ccccc1NC(=O)c1cc(C(=O)O)ccc1C(=O)O | 11.3%
O=C(CN(c1ccccc1)S(=O)(=O)c1ccccc1)NCCSc1nc2ccccc2s1 | 8.06%
CCOC(=O)Cn1c(C)cc(=O)c2ccccc21 | 12.3%
CC(Nc1n[nH]c(=S)[nH]c1=O)C(=O)OCc1ccccc1 (stereo not drawn) | 6.04%
COc1ccc(NS(=O)(=O)c2ccc(F)c(F)c2F)cc1S(=O)(=O)N1CCOCC1 | 19.1%

SMILES | hERG current change (%, negative = inhibition) at 1uM
CCOC(=O)Cc1cn2c(=O)cc(CSCC(=O)Nc3ccc(C)c(C)c3)nc2s1 | 9.54%
COc1ccc(C(=O)/C=C/c2ccc(OC)c(Cn3nnc4ccccc43)c2)cc1 | 8.34%
C#CCSc1nc(Cc2ccc(Cl)cc2)nc2ccccc12 | 26.7%
CCN(c1ccccc1)S(=O)(=O)c1ccc(C(=O)N(CCN(C)C)c2nc3c(F)cc(F)cc3s2)cc1.Cl | -17.3%
COc1cc(NC(=O)Cn2c([N+](=O)[O-])cnc2C)c(OC)cc1Cl | 13.2%
CCC(=O)Nc1ccc(C(=O)OCC(=O)c2ccc(C)c([N+](=O)[O-])c2)cc1 | 3.57%
Cc1noc(C)c1C(=O)N1CCN(c2ncccn2)CC1 | 11.8%
COc1ccccc1NC(=O)c1ccccc1Oc1ccccc1 | 13.4%
Cc1c(C(=O)NCc2ccco2)oc2c(F)cccc12 | 1.97%
COc1ccccc1CNCC(=O)Nc1ccc(C(F)(F)F)cc1.Cl | 6.96%
C#CCn1cc(/C=C2\NC(=O)NC2=O)c2ccccc21 | 8.24%
CCOC(=O)COc1ccc(S(=O)(=O)c2ccc(OCC(=O)OCC)cc2)cc1 | 14.1%
O=C(NCCN1CCOCC1)C1CCN(Cc2ccccc2O)CC1 | 15.6%
O=c1ccnc(SCc2ccccc2Cl)[nH]1 | 10.6%
O=C(Cn1c(Cc2ccccc2)nc2ccccc21)NCc1ccc2c(c1)OCO2 | 12.1%
CCOC(=O)c1c(-c2ccc(F)cc2)csc1NC(=O)CCN1CCOCC1.O=C(O)C(=O)O | -25.7%
Cc1ncc([N+](=O)[O-])n1Cc1ccccc1 | 4.29%
CC(=O)Nc1ccc(S(=O)(=O)NCCC(=O)NCC2COc3ccccc3O2)cc1 (stereo not drawn) | 10%
COc1ccc(Cc2nnc(NC(=O)c3cccc([N+](=O)[O-])c3)s2)cc1 | 18.2%
COC(=O)c1cc(=O)nc2sccn12 | 4.27%
COc1ccccc1CNc1ccc(N2CCCCC2)cc1 | -3.06%
CCCNC(=S)Nc1cccc(C(F)(F)F)c1 | 1.75%

SMILES | hERG current change (%, negative = inhibition) at 1uM
O=C(O)CC1c2ccccc2CCN1S(=O)(=O)c1ccccc1 (stereo not drawn) | 8.59%
Cc1cc(NC(=O)C(C)SCC(=O)OCc2ccc([N+](=O)[O-])cc2)no1 (stereo not drawn) | 3.86%
Cc1cc2nc3n(c2cc1C)CC1CC(C(=O)NCc2cccc(C(F)(F)F)c2)N(C)C31 (stereo not drawn) | -1.89%
O=C(COC(=O)/C=C/c1ccc(F)cc1)Nc1nnc(-c2ccccc2)o1 | 12.1%
Cc1ccc(CCNC(=O)c2cc(-c3ccncc3)nc3ccc(S(=O)(=O)N4CCOCC4)cc23)cc1 | 20.3%
CN(C)CCCO[C@@H]1[C@H]2OC(C)(C)O[C@H]2O[C@@H]1[C@H](O)CO.Cl | 11.5%
Cc1n[nH]c(=S)n1/N=C/c1ccccc1OCc1ccc(Cl)cc1Cl | 5.26%
Cc1ccc(S(=O)(=O)N(C)C)cc1NC(=O)c1ccc(-n2cncn2)c([N+](=O)[O-])c1 | -13.8%
CCc1ccccc1N1CN(Cc2cccnc2)CNC1=S | 14.1%
O=C(Cc1ccccc1)NCc1n[nH]c(=S)n1-c1ccc(Br)cc1 | 9.36%
CCSc1nc(O)c(C2OC(=O)c3c2ccc(OC)c3OC)c(=O)n1CC (stereo not drawn) | 2.3%
O=C(O)CCN1C(=O)c2ccc(NC(=O)Cc3ccc(Cl)cc3)cc2C1=O | 3.7%
COc1cc(NC(=O)c2ccc(Cl)cc2)c(OC)cc1NC(=O)CN1CCCCC1.Cl | 10.4%
CCCCCCCCN1C(=O)N(C)C(N(O)C(=O)NC)C1(C)C (stereo not drawn) | 15%
COc1nnc(-c2ccc(N3CCOCC3)c(NC(=O)c3ccco3)c2)c2ccccc12 | -1.48%
O=C(CCNS(=O)(=O)c1cccs1)N1CCN(c2ccc(F)cc2)CC1 | 11.6%
Cc1cc(/C=C2/C(=O)NC(=O)N(Cc3ccco3)C2=O)c(C)n1-c1ccccc1O | 5.38%
Cc1cc(C)c(NC(=O)C2CSCCS2)c(C)c1 (stereo not drawn) | -1.7%
O=C(CN1CCN(c2ccccn2)CC1)Nc1ccc(Oc2ccccc2)cc1 | 7.89%
Cc1ccc(CCNC(=O)C(C)n2nc(C)c3c(C)n(-c4ccccc4)nc3c2=O)cc1 (stereo not drawn) | -6.35%
O=C(O)c1ccccc1Nc1ccc([N+](=O)[O-])cc1 | 10.3%
